Laboratory results from PubChem BioAssay AID1345082 (National Center for Advancing Translational Sciences (NCATS), 2018).
Out of some 94,000 compounds screened, about 4,000 (4.3%) were called active. The inconclusive results got no clear call from the source; some entries with a clear call stand among them for comparison. Calls come from the whole dose curve; as a rule, active = well fitted inhibition curve with a large enough effect; inconclusive = small, poorly fitted or top-dose-only effect; inactive = no such curve, though single readings can be large or run the other way. Where the call is inconclusive, the potency comes from a doubtful curve fit.

test: Cytotoxic Profiling in NIH 3T3 Cell Line of Diverse Libraries Using Quantitative High-Throughput Screening; settings: NIH 3T3 viability, CellTiter-Glo ATP luminescence, 48-72 h; series mostly up to 96.7 µM; note: nearly all actives have a fitted effect of over 55% in size
In short: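 Viability of NIH 3T3 cells after 48 or 72 hr compound treatment at 37 °C was assessed by CellTiter-Glo, with luminescence imaged following a 10 min room-temperature step.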
Potency is the fitted concentration of half-maximal effect; tags give direction and shape of the fitted curve.

SMILES | Potency
O=C(c1nc2cccnc2n(CCc2ccccc2)c1=O)N1CCN(Cc2ccccc2)CC1 | inactive
O=C1COc2ccc(N3CCOCC3)nc2CN1CCOc1ccccc1 | inconclusive: 63.1 µM [inhibitor, partial curve, poor fit]
O=C(CNC(=O)c1ccc(-c2cccc(C(F)(F)F)c2)cc1)NCc1cccs1 | inconclusive: 8.91 µM [inhibitor, full curve]
Cc1ccc(C(=O)N2CCCC3(CN[S+](=O)([O-])c4cccnc4N3)C2)cc1 (stereo not drawn) | inactive
COc1cccc(CC(=O)N2CCCCCCNC(=O)CC2c2ccccc2)c1 (stereo not drawn) | inactive
CCOC(=O)[C@@H]1CN(C(=O)NC2CCCC2)[C@H]2c3ccccc3O[C@@H]12 | inconclusive: 56.2 µM [inhibitor, partial curve, poor fit]
CNC(=O)Nc1ccc(C)n(CC(=O)N2CCN(c3cc(C)ccc3C)CC2)c1=O | inactive
Cc1ccc(C(=O)N2CCCC(c3nn(-c4ccccc4)c(=O)[nH]3)C2)cc1 (stereo not drawn) | inconclusive: 44.7 µM [inhibitor, partial curve, poor fit]
O=C(NCc1ccc(F)cc1)N1CC(c2noc(C3CCCN3CC3CC3)n2)C1 (stereo not drawn) | inactive
COc1cccc(CCC(=O)N2CCC(N3C(=O)N(C)CC34CCOC4)CC2)c1 (stereo not drawn) | inconclusive: 44.7 µM [inhibitor, partial curve, poor fit]
COC(=O)[C@H](Cc1ccc(OC)cc1)NC(=O)[C@H]1CN(S(=O)(=O)c2ccccc2)CCN1C(=O)c1cccs1 | inconclusive: 89.1 µM [inhibitor, single point]
Cc1noc(-c2ccc(OC3CN(C(=O)CC4CCCC4)C3)cc2)n1 | inconclusive: 44.7 µM [inhibitor, partial curve, poor fit]
O=S(=O)(c1ccccc1C(F)(F)F)N1CC(c2nc(-c3ccncc3)no2)C1 | inconclusive: 39.8 µM [inhibitor, partial curve, poor fit]
O=C(CCC1CCCN(Cc2cccn2-c2nccs2)C1)Nc1ccccc1F (stereo not drawn) | inactive
Cc1ccccc1-c1noc(CCC(=O)N[C@H]2CC[C@H]2N)n1 | inactive
c1cc2nc(C3CCN(C4CCCCC4)C3)[nH]c2cn1 (stereo not drawn) | inconclusive: 112 µM [inhibitor, single point]
Cc1ccc(-n2c(C3CCN(C(=O)Cc4ccc(F)cc4)CC3)n[nH]c2=O)cc1 | inconclusive: 10 µM [inhibitor, full curve, poor fit]
CCC(=O)N1CCC(Oc2ncccc2C(N)=O)CC1 | inactive
CCOC(=O)[C@@H]1CN(C(=O)c2cccc(C#N)c2)[C@H]2c3ccccc3O[C@@H]12 | inactive
COc1ccc(C(=O)N2CCCC(C(=O)N3CCC(c4nc5ncccc5[nH]4)C3)C2)cc1 (stereo not drawn) | inactive
O=C(Nc1ccccc1)N1CCn2c(nn(-c3ccc([N+](=O)[O-])cc3)c2=O)C1 | inconclusive: 44.7 µM [inhibitor, partial curve, poor fit]
O=C(Cn1ccn2nc(-c3ccccc3)c(CO)c2c1=O)Nc1cc(F)cc(F)c1 | inconclusive: 35.5 µM [inhibitor, partial curve]

SMILES | Potency
O=C1c2cnccc2OC2(CCCC2)CN1Cc1ccccc1 | inconclusive: 35.5 µM [inhibitor, partial curve]
CC(C)(C)C1CCc2[nH]nc(C(=O)N3CCc4nn(CC#N)c(=O)n4CC3)c2C1 (stereo not drawn) | inconclusive: 63.1 µM [inhibitor, partial curve, poor fit]
CN(C)C(=O)c1nc(-c2cccc(F)c2)c2cnccn12 | inactive
CCCCCN1CCc2ccccc2OCC(=O)N(C)[C@@H](Cc2ccc(OCCO)cc2)C1=O | inconclusive: 50.1 µM [inhibitor, partial curve, poor fit]
O=[S+]([O-])(c1cccnc1)N1CCNc2cnc(Nc3ccc(-n4ccnc4)cc3)nc2C1 | inconclusive: 44.7 µM [inhibitor, partial curve, poor fit]
CN(CCc1ccccn1)[C@H]1[C@@H]2OC[C@@H](O2)[C@@H](NC(=O)Nc2ccc(F)cc2)[C@@H]1O | inactive
Cc1nc2cccnc2n1CC1CCCN(C(=O)Nc2cccc(C(F)(F)F)c2)C1 (stereo not drawn) | inconclusive: 50.1 µM [inhibitor, partial curve, poor fit]
CN(C)C(=O)CN1CCCc2nc(C3CC3)ncc2C1=O | inactive
COc1ccc2nc3n(c2c1)[C@@H](CNS(=O)(=O)Cc1ccccc1)COC3 | active: 89.1 µM
COc1ccc(-c2[nH]nc3ncc(-c4ccccc4F)nc23)cc1F | active: 50.1 µM
CN(Cc1ccccc1)C(=O)c1cc(-c2ccccc2C(F)(F)F)nc2c1cnn2C | inconclusive: 50.1 µM [inhibitor, partial curve, poor fit]
O=C(Cc1cccc(Cl)c1)N1CCC(n2cc(-c3nc(C4CC4)no3)nn2)C1 (stereo not drawn) | inactive
CCNC(=O)OC1CCN(C(=O)Cc2ccc(F)cc2)CC(=O)N(C)c2ccccc21 (stereo not drawn) | inconclusive: 79.4 µM [inhibitor, partial curve, poor fit]
O=C1CC(c2noc(-c3ccc(C(F)(F)F)cc3)n2)CN1C1CCCCC1 (stereo not drawn) | inconclusive: 44.7 µM [inhibitor, partial curve, poor fit]
O=C(CCCc1ccccc1)N1CCN(c2cc(-c3ccccc3)[nH]n2)CC1 | inconclusive: 39.8 µM [inhibitor, partial curve]
CNC(=O)[C@@H](CC(C)C)N1CCC[C@H]1C(=O)NCCc1ccccn1 | inactive
Cn1cccc1CN1CCn2c(nn(-c3cccc(Cl)c3)c2=O)C1 | inconclusive: 35.5 µM [inhibitor, partial curve]
Cn1nc(C(=O)N2CCCN(Cc3ccncc3)C(c3ccccc3)CC(=O)NCC2)c2ccccc21 (stereo not drawn) | inactive
Cc1ccccc1-c1noc(CN2CCCC2=O)n1 | inactive
COc1ncccc1-c1cnc2[nH]cc(CC(=O)Nc3ccn(C)n3)c2c1 | inconclusive: 56.2 µM [inhibitor, partial curve, poor fit]
COc1ccccc1Nc1ccnc(N2CCC[C@H]2C(=O)NCc2ccc(C(F)(F)F)cc2)n1 | inconclusive: 50.1 µM [inhibitor, partial curve, poor fit]
